# In PubChem BioAssay AID624418 (National Center for Advancing Translational Sciences (NCATS), 2012):
# Hit rate of the full screen: of about 410,000 compounds, about 530 (0.13%) were called active. This list was built around the results that the source calls inconclusive (neither active nor inactive); the mix of calls is not that of the screen. The call rests on the fitted dose curve; in most records, active means well fitted inhibition curve with a large enough effect; inconclusive means small, poorly fitted or top-dose-only effect, or another doubt; inactive means no such curve, though single readings can be large or run the other way. Where the call is inconclusive, the potency comes from a doubtful curve fit.
# Assay: qHTS of GLP-1 Receptor Inverse Agonists: Cytotox Screen
# Conditions: HEK293 cAMP-luciferase reporter cells, luminescence, 24 h; activity change, negative = inhibition: at 38.3 µM (top of the series) unless noted
# Procedure, shortened: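 Quantitative HTS format, 1536 wells, 200 cells/uL seeded. Compounds: 23 nL, 24 h, 37 °C. Detection: luciferase reagent, luminescence at 12 min RT; decreased signal taken as cytotoxic.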
# On the % scale 0 is the no-effect control and ±100 the full control effect; potency means the concentration at half of the fitted maximal effect.
Structure (SMILES),"activity change, negative = inhibition",Potency
Cc1cccc(-c2ccc3[nH]c4c(c3c2)CCN2C[C@@H]([C@H](C)O)[C@@H](N(C)C(=O)NC3CCCCC3)C[C@@H]42)c1,inactive: 11.8%,
CCN(CC)c1nn2c(=O)c(C(=O)NCCc3cccc(C)c3)cnc2s1,inactive: 1.81%,
Brc1ccccc1CN1CCN(Cc2c[nH]c3ccccc23)CC1,,"inconclusive: 31.6 µM [inhibitor, partial curve, poor fit]"
Cc1ccc2nc(-c3ccccn3)c(Nc3ccccc3C)n2c1,,"inconclusive: 6.31 µM [inhibitor, partial curve, poor fit]"
COC(=O)c1cc(-c2c(-c3cc(OC)c(OC)c(OC)c3)noc2C)cc([N+](=O)[O-])c1,,"inconclusive: 31.6 µM [inhibitor, single point]"
COC(=O)[C@@]12CCCN1[C@H](c1ccc(-c3ccc(OC)cc3)c(OC)c1)[C@@H]1C(=O)N(C)C(=O)[C@@H]12,inactive: -12%,
COC(=O)C1=C(C(=O)c2ccccc2)C(c2cccs2)n2nnnc2N1 (stereo not given),,"inconclusive: 10 µM [inhibitor, partial curve, poor fit]"
COc1cc2c(cc1OC)C(C)N(C(=O)c1c(-c3ccccc3)noc1C)CC2 (stereo not given),,"inconclusive: 5.62 µM [inhibitor, full curve, poor fit]"
N#Cc1cc([N+](=O)[O-])ccc1NCCCn1ccnc1,,"inconclusive: 11.2 µM [inhibitor, single point]"
COc1ccccc1C1=CN(Cc2ccccc2)CCC1=O,,"inconclusive: 0.501 µM [inhibitor, full curve, poor fit]"
CCOC(=O)c1cnc2ccc(OCC)cc2c1NCc1ccccc1,,"inconclusive: 12.6 µM [inhibitor, single point]"
COc1ccc(OC)c(NC(=O)CN2C(=O)COc3ccc(S(=O)(=O)N4CCCC4)cc32)c1,,"inconclusive: 22.4 µM [inhibitor, single point]"
COc1ccc(CN2CCN(C(c3ccc(F)cc3)c3ccc(F)cc3)CC2)c(OC)c1OC,,"inconclusive: 20 µM [inhibitor, single point]"
CCN1C(=NCC2CC2)N[C@@H](c2ccccc2)C(C(=O)OC)=C1C,,"inconclusive: 28.2 µM [inhibitor, single point]"
O=[N+]([O-])c1ccc(NN=CCCc2ccccc2)nc1,,"inconclusive: 12.6 µM [inhibitor, partial curve, poor fit]"
FC(F)(F)c1cccc(Nc2c3c(nc4ccc(Cl)cc24)CCC3)c1,,"inconclusive: 12.6 µM [inhibitor, single point]"
Cc1ccc(NC(=O)CNC(c2ccccc2)c2ccccc2)c(F)c1,inactive: -27.4%,
COc1ccc2oc(/C=C/N(C)C)c(C(=O)c3ccc(Cl)cc3)c2c1,,"inconclusive: 22.4 µM [inhibitor, single point]"
Cc1cc(OCC(=O)Nc2ccc(S(=O)(=O)NC3=NCCCCC3)cc2)c(C(C)C)cc1Cl,,"inconclusive: 28.2 µM [inhibitor, single point]"
COc1ccc(Nc2oc(COc3ccc(Cl)cc3)nc2C#N)cc1,,"inconclusive: 14.1 µM [inhibitor, partial curve, poor fit]"

Structure (SMILES),"activity change, negative = inhibition",Potency
FC(F)(F)c1ccccc1CNCc1ccc2c(c1)OCO2,,"inconclusive: 3.55 µM [inhibitor, full curve, poor fit]"
COc1ccc(OC)c(NC(=O)CCN2CCN(CCO)CC2)c1,,"inconclusive: 4.47 µM [inhibitor, partial curve, poor fit]"
Cc1ccc(/C=N/NC(=O)c2ccncc2)s1,,"inconclusive: 11.2 µM [inhibitor, single point]"
COc1cc(/C=C2/CCc3ccccc3C2=O)cc(OC)c1OC,,"inconclusive: 12.6 µM [inhibitor, single point]"
Nc1ccc(C(=O)N/N=C\c2cc(N=Nc3cccc4ccccc34)ccc2O)cc1,,"inconclusive: 10 µM [inhibitor, single point]"
CCOc1ccccc1N1CCN(C(=O)c2cc3ccccc3cc2OC)CC1,,"inconclusive: 3.16 µM [inhibitor, full curve]"
Cc1cc(C)cc(NC(=O)C2C3C=CC4(O3)C2C(=O)N(CCCN(C)C)C4C(=O)NC2CCCC(C)C2C)c1 (stereo not given),,"inconclusive: 10 µM [inhibitor, single point]"
O=C1C(Cl)=C(Nc2ccc(O)cc2)C(=O)c2ccccc21,,"inconclusive: 28.2 µM [inhibitor, single point]"
Cc1ccc(S(=O)(=O)Nc2ccc3c(c2)C(=O)N([C@H](C)CO)C[C@H](C)[C@@H](CN(C)C(=O)Nc2ccc(C(F)(F)F)cc2)O3)cc1,,"inconclusive: 28.2 µM [inhibitor, single point]"
CC(=O)Nc1ccc2[nH]ccc2c1,inactive: 8.95%,
Cc1ccccc1/C=C/C(=O)c1ccc([N+](=O)[O-])o1,,"inconclusive: 11.2 µM [inhibitor, single point]"
COc1ccc(N2CCN(Cc3nc4c(c(=O)[nH]c(=O)n4C)n3Cc3ccccc3F)CC2)cc1,inactive: 0.522%,
C#CC(=O)N(c1ccc(OC)cc1OC)C(C(=O)NC1CCCC1)c1cccs1 (stereo not given),,"inconclusive: 11.2 µM [inhibitor, partial curve, poor fit]"
O=C1S/C(=C\c2ccc(Cl)cc2)C(=O)N1CCn1cnnn1,,"inconclusive: 14.1 µM [inhibitor, single point]"
CCc1ccc(C(=O)CC2(O)C(=O)N(CCc3ccccc3)c3ccc(Cl)cc32)cc1 (stereo not given),,"inconclusive: 14.1 µM [inhibitor, single point]"
CCN(CCO)C1CC(=O)N(c2ccccc2C)C1=O (stereo not given),inactive: -9.44%,
COc1ccc(NC(=O)CN2CCC(n3c(C)nc4cc(F)ccc43)CC2)c(OC)c1,inactive: 1.23%,
O=C(Nc1ccncc1)c1c(Cl)cccc1Cl,,"inconclusive: 0.447 µM [inhibitor, full curve, poor fit]"
COC(=O)c1ccccc1-c1ccc(/C=N/NC(N)=O)o1,inactive: 1.79%,
O=c1c2ccccc2nc(SCc2cn3ccsc3n2)n1-c1ccccc1F,,"inconclusive: 12.6 µM [inhibitor, single point]"
